Inconclusive means that the source gave no clear call. Such entries were picked first, then a sample of the others. Potencies of inconclusive entries are doubtful fits and often do not repeat. Activity calls are given as the source filed them. Calls come from the whole dose curve; as a rule, active = well fitted inhibition curve with a large enough effect; inconclusive = small, poorly fitted or top-dose-only effect, or effect the other way, or another doubt; inactive = no such curve, though single readings can be large or run the other way.
Test: Confirmation Concentration-Response Assay for lipid storage modulators; note: nearly all actives have a fitted effect of over 80% in size;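 for activity change, negative = inhibition: -100% = full block of lipid deposition by 20 µM Triacsin C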
Conditions: Drosophila S3 cells, lipid droplet BODIPY/CellTracker ratio, 18-24 h; activity change, negative = inhibition: at 46.1 µM (top of the series)
In short: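 Cells at 5,000/well received compound as a titration plus oleic acid (added as 400 uM solution) and were incubated 18–24 h at 24 °C. BODIPY 493/503 lipid signal and CellTracker Red cell count were read by 488-nm laser-scanning cytometry. Activity was normalised to 20 uM Triacsin C.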
Potency is the fitted concentration of half-maximal effect; tags give direction and shape of the fitted curve.

Row | SMILES | Potency | activity change, negative = inhibition
1 | O=C(NC(=S)Nc1ccc(Cc2ccncc2)cc1)c1ccc(F)cc1 | inconclusive: 1.25 µM [activator, full curve, poor fit] | –
2 | COc1ccc(CCNC(=O)c2cc([N+](=O)[O-])cc([N+](=O)[O-])c2)cc1OC | inconclusive: 5.6 µM [activator, partial curve, poor fit] | –
3 | Cc1nc(SC(C)C(=O)c2c(N)n(C)c(=O)n(C)c2=O)c2c(C)c(C)sc2n1 (centres undefined) | inconclusive: 0.396 µM [activator, full curve] | –
4 | CCC(C)N1C(=O)c2ccccc2C1C(=O)NC1CCCCCC1 (centres undefined) | active: 1.99 µM | –
5 | COc1ccc(CCNC(=O)c2cc3sc(Cl)cc3n2C)cc1OC | inactive | –
6 | COc1ccc(CCNC(=O)COc2ccc(S(=O)(=O)NC3CCCCC3)cc2Cl)cc1OC | active: 3.97 µM | –
7 | CC1CCN(C(=O)c2cc3nc(-c4ccccc4)cc(-c4ccccc4)n3n2)CC1 | inconclusive: 0.315 µM [activator, full curve] | –
8 | O=C(NCC(c1cccnc1)N1CCN(c2ccccc2)CC1)c1ccc2c(c1)OCO2 (centres undefined) | inconclusive: 1.25 µM [activator, partial curve] | –
9 | Cc1ccc(-n2ncc3c2CCCC3NC(=O)c2cnccn2)cc1C (centres undefined) | active: 0.141 µM | –
10 | O=C(NCCC1=CCCCC1)c1ccc(Cl)c(S(=O)(=O)N2CCCCC2)c1 | inconclusive: 4.99 µM [activator, full curve, poor fit] | –
11 | CCN(CC(=O)Nc1c(F)cccc1F)C(=O)C1CC1 | – | inconclusive: 75.4% [activator]
12 | O=C(Nc1ccccc1C(=O)Nc1ccc2c(c1)OCO2)c1cccs1 | inconclusive: 0.791 µM [activator, full curve] | –
13 | O=C(NCc1ccc2c(c1)OCO2)C1CCN(c2ccc(S(=O)(=O)N3CCCC3)cc2)CC1 | inconclusive: 4.99 µM [activator, full curve] | –
14 | Cc1cc(C(=O)Nc2nccs2)c2cc(F)ccc2n1 | inconclusive: 4.99 µM [activator, full curve] | –
15 | O=c1c2c3c(sc2n2cnnc2n1CCc1ccccc1)CCCC3 | inconclusive: 1.41 µM [activator, full curve, poor fit] | –
16 | CCOc1ccc(C(=O)Nc2cc(Cl)ccc2-n2cncn2)cc1OC | inconclusive: 0.888 µM [activator, full curve] | –
17 | CCOC(=O)c1c(C)[nH]c(C(=O)OCC(=O)Nc2cc(C)ccc2OC)c1C | inconclusive: 0.791 µM [activator, full curve] | –
18 | O=C(CCc1ccccn1)NC1CCCc2c1cnn2-c1ccc(F)cc1F (centres undefined) | inactive | –
19 | CCOc1ccc(OCC)c(NC(=O)C2CCCN(c3ncccn3)C2)c1 (centres undefined) | inconclusive: 1.25 µM [activator, full curve] | –
20 | CCOc1ccc(CCNC(=O)c2ccc(N3CCCC3=O)cc2)cc1OCC | inconclusive: 0.315 µM [activator, full curve, poor fit] | –

Row | SMILES | Potency | activity change, negative = inhibition
21 | COc1ccc(CCNC(=O)CSCC(=O)Nc2ccccc2)cc1OC | – | inconclusive: 62% [activator]
22 | Cc1cc2cc(CNC(=O)c3ccc(S(=O)(=O)N4CCCCC4)cc3)ccc2n1C | inconclusive: 7.91 µM [activator, full curve, poor fit] | –
23 | CCOc1ccc(CCNC(=O)COC(=O)CSc2ccccc2C)cc1OCC | inactive | –
24 | CCOC(=O)C(C)Oc1cccc2c(=O)n(CC(=O)NCCc3ccc(OC)c(OC)c3)ccc12 (centres undefined) | inconclusive: 19.9 µM [falling, partial curve, poor fit] | –
25 | O=C(NCc1ccc(Cl)cc1)c1cccc(NC(=O)c2ccccc2)c1 | inconclusive: 4.45 µM [activator, full curve] | –
26 | COc1cccc2cc(-c3nnc(SCC(=O)Nc4nc(C)cs4)n3C)oc12 | active: 1.99 µM | –
27 | Cc1cc(=O)oc2cc(OCC3CC(c4ccccc4)=NO3)ccc12 (centres undefined) | inconclusive: 3.97 µM [activator, full curve] | –
28 | CCOC(=O)C1CCN(C(=O)C2(NC(=O)Nc3ccccc3Cl)CCCCC2)CC1 | active: 0.628 µM | –
29 | Cc1ccccc1Nc1nc(N)nc(CN2CCN(c3ccccn3)CC2)n1 | inconclusive: 6.28 µM [activator, partial curve] | –
30 | NC(=O)c1ccc(NC(=O)CCCc2nc(-c3ccccc3Cl)no2)cc1 | inconclusive: 14.1 µM [activator, partial curve] | –
31 | O=C1C(Nc2ccccc2)=C/C(=N/S(=O)(=O)c2cccs2)c2ccccc21 | active: 7.91 µM | –
32 | COc1ccc(CCNC(=O)CSc2ncnc3c2oc2ccccc23)cc1OC | inconclusive: 0.996 µM [activator, full curve] | –
33 | CCOc1ccc(CCNC(=O)c2cc3sccc3n2C)cc1OCC | active: 0.705 µM | –
34 | CCOC(=O)c1c(NC(=O)CSc2ncccn2)sc(C(=O)NC)c1C | inconclusive: 1.99 µM [activator, full curve] | –
35 | Cc1nn2c(c1-c1ccccc1)N=C(c1ccco1)CC2c1ccccc1 (centres undefined) | inconclusive: 6.28 µM [activator, full curve] | –
36 | COc1nnc(-c2ccc(N3CCOCC3)c(NC(=O)c3ccco3)c2)c2ccccc12 | inconclusive: 0.888 µM [activator, full curve, poor fit] | –
37 | COc1ccc(CCNC(=O)c2ccccc2Cl)cc1OC | inconclusive: 3.97 µM [activator, partial curve, poor fit] | –
38 | CCC(=O)c1ccc(OCC(=O)Nc2ccc(N3CCOCC3)cc2N2CCOCC2)cc1 | inactive | –
39 | CCCOc1ccc2oc(=O)c3c(c2c1)CCCN3C(=O)CN1CCN(C(=O)c2ccco2)CC1 | active: 1.99 µM | –
